The text below walks through data of the antibiotic and cytotoxicity screens of Wong et al. (2023).

This is one part of the list.

For one experiment, the system named is HSkMC. The experiment can be described thus: cytotoxicity call (relative viability < 0.9). As to conditions: 10 µM.
In a further experiment the test system is HepG2. Kind of experiment: cytotoxicity call (relative viability < 0.9). As to conditions: 10 µM.
For another experiment, the system named is S. aureus RN4220. Kind of experiment: growth inhibition call (relative growth <= 0.2). The settings on record: 50 µM.

Take `O=C(/C=C/c1cccc(-c2cn(-c3ccc(C[C@H]4C(=O)O[C@@H](Cc5ccccc5)[C@H]5[C@@H]6C=CCCC=C6CN54)cc3)nn2)c1)NO`: the cytotoxicity call with HSkMC and with HepG2 was “inactive” each time. Also, the growth inhibition call in the experiment on S. aureus RN4220 is “inactive”.

Regarding `C[C@@H]1CCCCO[C@@H](CN(C)S(=O)(=O)c2ccccc2)[C@@H](C)CN([C@@H](C)CO)C(=O)c2cc(NS(C)(=O)=O)ccc2O1`, the cytotoxicity call in the experiment with HSkMC and in the experiment on HepG2 was “inactive” each time. Further, the growth inhibition call with S. aureus RN4220 is “inactive”.

As for `C[C@H](CO)N1C[C@H](C)[C@H](CN(C)C(=O)Nc2ccc(C(F)(F)F)cc2)Oc2c(NC(=O)c3ccc(-c4nccs4)cc3)cccc2C1=O`, the cytotoxicity call with HSkMC and in the experiment on HepG2 was “inactive” throughout. Besides, the growth inhibition call in the experiment on S. aureus RN4220 is “inactive”.

With `COc1ccccc1CNC(=O)C[C@@H]1C[C@H]2c3cc(NS(=O)(=O)c4ccc(F)cc4)ccc3O[C@H]2[C@H](CO)O1`, the cytotoxicity call with HSkMC and in the experiment on HepG2 was “inactive” each time. Moreover, the growth inhibition call in the experiment on S. aureus RN4220 is “inactive”.

Take `CSCc1nc(=O)cc(C(=O)O)[nH]1`: the cytotoxicity call in the experiment on HSkMC and in the experiment with HepG2 was “inactive” each time. Also, the growth inhibition call with S. aureus RN4220 was “inactive”.

For the molecule `CCC(C)C1NC(=O)C(CCNCS(=O)(=O)[O-])NC(=O)C(NC(=O)C(CCNCS(=O)(=O)[O-])NC(=O)C(NC(=O)C(CCNCS(=O)(=O)[O-])NC(=O)CCCCC(C)C)C(C)O)CCNC(=O)C(C(C)O)NC(=O)C(CCNCS(=O)(=O)[O-])NC(=O)C(CCNCS(=O)(=O)[O-])NC(=O)C(C(C)CC)NC1=O.[Na+].[Na+].[Na+].[Na+].[Na+]` (stereo not drawn), the cytotoxicity call in the experiment with HSkMC is “inactive”. For the same molecule, the cytotoxicity call with HepG2 is “active”. In the experiment on S. aureus RN4220, the growth inhibition call is “inactive”.

Regarding `[O-][NH2+][O-]`, the cytotoxicity call in the experiment on HSkMC and in the experiment with HepG2 was “inactive” each time. Besides, in the experiment with S. aureus RN4220, the growth inhibition call was “inactive”.

With `C[C@H]1CCCCO[C@H](CN(C)C(=O)Nc2ccc(F)cc2)[C@@H](C)CN([C@@H](C)CO)C(=O)c2cc(NC(=O)Cc3ccccc3)ccc2O1`, the cytotoxicity call in the experiment with HSkMC and in the experiment with HepG2 was “inactive” each time. In addition, in the experiment on S. aureus RN4220, the growth inhibition call was “inactive”.

For `C[C@H]1CN([C@@H](C)CO)C(=O)Cc2cc(NC(=O)Nc3cccc4ccccc34)ccc2O[C@@H]1CN(C)Cc1ccc(C(F)(F)F)cc1`, the cytotoxicity call in the experiment on HSkMC and with HepG2 was “inactive” throughout. For the same molecule, in the experiment on S. aureus RN4220, the growth inhibition call was “inactive”.

Turning to `C[C@H](CO)N1C[C@H](C)[C@H](CN(C)C(=O)Nc2ccc(F)cc2)Oc2ccc(NC(=O)Nc3cccc4ccccc34)cc2C1=O`, the cytotoxicity call in the experiment on HSkMC and in the experiment on HepG2 was “inactive” in each case. The growth inhibition call in the experiment with S. aureus RN4220 is “inactive”.

In the case of `CC(=O)OC12COC1CC(O)C1(C)C(=O)C(O)C3=C(C)C(OC(=O)C(O)C(NC(=O)OC(C)(C)C)c4ccccc4)CC(O)(C(OC(=O)c4ccccc4)C21)C3(C)C.O.O.O` (stereo not drawn), the cytotoxicity call in the experiment on HSkMC is “inactive”. For the same molecule, the cytotoxicity call in the experiment on HepG2 is “active”. Besides, the growth inhibition call in the experiment on S. aureus RN4220 was “inactive”.

With `COc1ccc(C#Cc2ccc3c(c2)[C@@]2(C(=O)N3C(=O)N[C@@H](C)c3ccccc3)[C@H](c3ccc(OCCO)cc3)N3[C@H](c4ccccc4)[C@H](c4ccccc4)OC(=O)[C@H]3[C@@H]2C(=O)O)cc1`, the cytotoxicity call in the experiment with HSkMC and with HepG2 was “active” throughout. Also, the growth inhibition call in the experiment with S. aureus RN4220 is “inactive”.

For the molecule `C[C@H](CO)N1C[C@H](C)[C@H](CN(C)Cc2ccc(C(=O)O)cc2)Oc2c(NC(=O)Nc3ccc(C(F)(F)F)cc3)cccc2C1=O`, the cytotoxicity call in the experiment with HSkMC and in the experiment with HepG2 was “inactive” each time. Also, the growth inhibition call in the experiment with S. aureus RN4220 is “inactive”.

Take `CCCNC(=O)N1C[C@]2(CN(C2)S(=O)(=O)c2cccc(c2)OC)c2c(n(c3cc(ccc23)OC)C)[C@@H]1CO`: the cytotoxicity call in the experiment with HSkMC and with HepG2 was “inactive” throughout. Besides, in the experiment on S. aureus RN4220, the growth inhibition call was “inactive”.

On to `CC(C)NC(=O)N(C)C[C@@H]1Oc2ccc(NC(=O)CCC(F)(F)F)cc2CC(=O)N([C@@H](C)CO)C[C@H]1C`, for which the cytotoxicity call in the experiment on HSkMC and in the experiment on HepG2 was “inactive” throughout. For the same molecule, in the experiment with S. aureus RN4220, the growth inhibition call was “inactive”.

Take `C[C@@H]1CCCCO[C@@H](CN(C)Cc2ccc(Cl)c(Cl)c2)[C@@H](C)CN([C@@H](C)CO)C(=O)c2cc(NC(=O)Nc3ccc(F)cc3)ccc2O1`: the cytotoxicity call in the experiment on HSkMC (human skeletal muscle cells) is “inactive”. Moreover, the cytotoxicity call in the experiment with HepG2 is “active”. The growth inhibition call in the experiment on S. aureus RN4220 was “inactive”.

Regarding `C[C@H]1CN([C@@H](C)CO)C(=O)c2cccc(NS(C)(=O)=O)c2O[C@H]1CN(C)C(=O)NC1CCCCC1`, the cytotoxicity call in the experiment with HSkMC and in the experiment with HepG2 was “inactive” throughout. In the experiment on S. aureus RN4220, the growth inhibition call is “inactive”.

Regarding `CCn1cc(C(=O)O)c(=O)c2cc(F)c(N3CCNCC3)nc21`, the cytotoxicity call with HSkMC and with HepG2 was “inactive” each time. Besides, in the experiment on S. aureus RN4220, the growth inhibition call is “inactive”.

On to `O=C(C[C@H]1CC[C@@H]2[C@H](COC[C@@H](O)CN2S(=O)(=O)c2ccc(F)cc2)O1)N[C@H]1CCN(Cc2ccccc2)C1`, for which the cytotoxicity call with HSkMC and in the experiment on HepG2 was “inactive” throughout. The growth inhibition call in the experiment with S. aureus RN4220 was “inactive”.

Take `C[C@@H]1CN([C@@H](C)CO)C(=O)Cc2cc(NC(=O)C3CCCCC3)ccc2O[C@H]1CN(C)C(=O)Nc1cccc2ccccc12`: the cytotoxicity call in the experiment with HSkMC and with HepG2 was “inactive” each time. Besides, the growth inhibition call in the experiment with S. aureus RN4220 is “inactive”.

Consider `Cc1ccc(C(N)=O)cc1N(C)S(C)(=O)=O`, for which the cytotoxicity call in the experiment with HSkMC and in the experiment on HepG2 was “inactive” in each case. Besides, the growth inhibition call with S. aureus RN4220 was “inactive”.

As to `COc1ccc(S(=O)(=O)N(C)C[C@H]2Oc3ncc(C#CC4(O)CCCC4)cc3C(=O)N([C@@H](C)CO)C[C@@H]2C)cc1`, the cytotoxicity call in the experiment with HSkMC and with HepG2 was “inactive” throughout. Also, the growth inhibition call with S. aureus RN4220 was “inactive”.

For `CCCNC(=O)N[C@@H]1CC[C@@H](CC(=O)N2CCN(C)CC2)O[C@H]1CO`, the cytotoxicity call with HSkMC and in the experiment on HepG2 was “inactive” throughout. Further, the growth inhibition call in the experiment with S. aureus RN4220 is “inactive”.

As for `C[C@@H]1O[C@@H](O[C@@H]2[C@@H](O)[C@H](OCCc3ccc(O)c(O)c3)O[C@H](CO)[C@H]2O)[C@H](O)[C@H](O)[C@H]1O`, the cytotoxicity call in the experiment with HSkMC and in the experiment with HepG2 was “inactive” each time. The growth inhibition call in the experiment with S. aureus RN4220 was “inactive”.

Consider `C=CCOC(=O)[C@H]1[C@@H]2C(=O)O[C@@H](c3ccccc3)[C@@H](c3ccccc3)N2[C@@H](c2ccc(OCCOC(=O)[C@@H]3C[C@@H]4C(=O)N[C@@H](CC(C)C)C(=O)N4[C@@H]3c3ccc(O)cc3)cc2)[C@]12C(=O)Nc1ccc(I)cc12`, for which the cytotoxicity call in the experiment with HSkMC and in the experiment on HepG2 was “inactive” throughout. Further, the growth inhibition call in the experiment with S. aureus RN4220 is “inactive”.

`CO[C@H]1CN(C)C(=O)c2cc(NS(=O)(=O)CC(F)(F)F)ccc2OC[C@@H](C)N(Cc2cccnc2)C[C@H]1C`: the cytotoxicity call with HSkMC and with HepG2 was “inactive” each time. Besides, the growth inhibition call in the experiment with S. aureus RN4220 was “inactive”.
